# These are yes or no findings as the source states them, for the method shown. Binding seen in cells or lysates may run through a third protein. Some binding calls cover weakened binding; strength is not graded here.
# The chains behind the UniProt entries cited, without tags or fusion partners. Where a name states a change or a piece, a line headed by the entry shows the natural chain unless it says otherwise.
# UniProt Q9H0J9: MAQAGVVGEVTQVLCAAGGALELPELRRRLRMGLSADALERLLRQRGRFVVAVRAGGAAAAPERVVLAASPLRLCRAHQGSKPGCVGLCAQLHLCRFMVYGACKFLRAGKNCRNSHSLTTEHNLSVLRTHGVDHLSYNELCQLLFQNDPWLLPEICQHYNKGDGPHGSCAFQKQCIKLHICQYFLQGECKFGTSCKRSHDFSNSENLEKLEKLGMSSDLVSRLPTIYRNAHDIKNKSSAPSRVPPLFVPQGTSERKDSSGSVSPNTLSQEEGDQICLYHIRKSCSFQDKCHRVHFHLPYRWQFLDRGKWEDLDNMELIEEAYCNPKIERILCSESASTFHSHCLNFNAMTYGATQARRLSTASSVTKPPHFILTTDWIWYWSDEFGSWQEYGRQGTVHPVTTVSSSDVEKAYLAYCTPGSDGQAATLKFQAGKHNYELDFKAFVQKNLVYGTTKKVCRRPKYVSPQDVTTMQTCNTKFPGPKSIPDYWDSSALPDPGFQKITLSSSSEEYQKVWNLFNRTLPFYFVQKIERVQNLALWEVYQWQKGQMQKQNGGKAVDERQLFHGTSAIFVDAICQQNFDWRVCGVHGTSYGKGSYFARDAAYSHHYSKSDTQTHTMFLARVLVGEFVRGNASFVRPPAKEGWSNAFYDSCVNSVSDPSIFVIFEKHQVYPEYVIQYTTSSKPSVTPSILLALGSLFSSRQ
# Assays:
# [1] = molecular target: Myc-tagged full-length PARP12 wild-type (human) (UniProt Q9H0J9); experiment: co-IP; Myc-tagged PARP12 full-length immunoprecipitated with anti-Myc antibody on beads, then incubated 2 h at 4 °C with 700 μg HeLa lysate overexpressing the FLAG-tagged construct; lysis buffer A (50 mM Tris-HCl pH 7.4, 150 mM NaCl, 1% Triton-X100); Western blot with anti-FLAG and anti-PARP12; only the target purified
# [2] = molecular target: Myc-tagged full-length PARP12 wild-type (human) (UniProt Q9H0J9); experiment: co-IP; as a2 but lysis and washes in buffer B (25 mM Tris-HCl pH 7.4, 150 mM NaCl, 1% Triton-X100, 5 mM EDTA, 5 mM MgCl2), used for the FLAG-tagged MUT4 protein; only the target purified
# [3] = molecular target: Myc-tagged PARP12 H564A (human) (UniProt Q9H0J9); experiment: co-IP; anti-Myc immunoprecipitation of total lysates (RIPA buffer) of HeLa cells transfected with Myc-tagged PARP12 wild-type or mutants; Western blot with anti-PARP12 antibody
# [4] = molecular target: Myc-tagged PARP12 I660A (human) (UniProt Q9H0J9); experiment: as above
# [5] = molecular target: Myc-tagged full-length PARP12 wild-type (human) (UniProt Q9H0J9); experiment: as above
binding [1],Substance,also measured
no binding,FLAG-PARP12 MUT1 (amino acids 1-296) (from UniProt Q9H0J9 1-296) (domain or fragment),
binds,FLAG-PARP12 MUT2 (amino acids 1-361) (from UniProt Q9H0J9 1-361) (domain or fragment),
binds,FLAG-PARP12 MUT3 (amino acids 1-458) (from UniProt Q9H0J9 1-458) (domain or fragment),
,FLAG-PARP12 MUT4 (amino acids 298-701) (from UniProt Q9H0J9 298-701) (domain or fragment),binding [2]: binds
no binding,FLAG-PARP12 MUT5 (amino acids 364-701) (from UniProt Q9H0J9 364-701) (domain or fragment),
,endogenous PARP12 (from UniProt Q9H0J9 1-701),binding [3]: binds; binding [4]: binds; binding [5]: binds

# Source: PMC5656619
